Data reported in the supplement of paper PMC4166925.
± gives the standard deviation of the averaged measurements. The full ranking holds about 33,000 sequences; the median of “E-score (dimensionless, -0.5 to 0.5)” is about -0.046, and the highest 2% start at about 0.36. The list shows a part of the results.

System: T1, SpTbr T-box DNA-binding domain (GST fusion)
T1 sequence: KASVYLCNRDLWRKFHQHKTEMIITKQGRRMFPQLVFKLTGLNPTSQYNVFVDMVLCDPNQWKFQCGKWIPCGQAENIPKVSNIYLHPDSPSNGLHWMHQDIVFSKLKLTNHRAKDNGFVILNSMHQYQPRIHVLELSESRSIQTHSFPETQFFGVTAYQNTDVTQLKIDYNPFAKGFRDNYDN
Experiment: PBM E-score of 8-mer (E-score (dimensionless, -0.5 to 0.5)); Tbr is Tbrain of the sea star Patiria miniata (Pm) or the sea urchin Strongylocentrotus purpuratus (Sp); higher = stronger binding preference; most listed sequences are background and not binding sites
Conditions: the construct has about 5 more residues each side
Procedure, shortened: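 Using the Universal PBM Analysis Suite, every ungapped 8-mer received an enrichment E-score averaged over duplicate arrays. Probe intensities came from double-stranded Universal Agilent oligonucleotide arrays incubated with 200 nM GST-fused Tbr T-box DNA-binding domain in PBS (pH 7.5). That protein was expressed in BL21 E. coli at 20 °C and purified by glutathione affinity chromatography.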

Sequence | PBM E-score of 8-mer
CATGTCGA | -0.0673 ± 0.11
TAATTTGA | -0.102 ± 0.023
AAACCTTT | -0.137 ± 0.077
AGCCAACG | -0.00602 ± 0.019
AGCGAACT | 0.12 ± 0.0055
GACATATC | -0.0112 ± 0.045
CAGAACAA | -0.146 ± 0.017
CCTCGAGC | 0.00142 ± 0.047
CCAGGGCA | -0.265 ± 0.012
CCCAGGAG | -0.188 ± 0.037
ACGGGATA | 0.0434 ± 0.024
AGTACTTA | -0.0135 ± 0.058
ATAAGGTC | -0.0916 ± 0.027
CCCTCGAA | -0.00653 ± 0.054
GCAACTTA | 0.0187 ± 0.039
ACCACTAC | -0.2325 ± 0.00052
GTGCTAAA | 0.384 ± 0.026
CATAGCCG | -0.221 ± 0.016
AATGACCA | -0.058 ± 0.046
AGTTCGAC | -0.217 ± 0.032
CGTGCACA | 0.123 ± 0.081
TCGGAAAA | -0.121 ± 0.03
GCTCCGCA | -0.0854 ± 0.025
ATGCATTC | -0.151 ± 0.051
ATAGGGCA | -0.223 ± 0.025

Sequence | PBM E-score of 8-mer
CCATACCG | -0.115 ± 0.017
AACAGCAT | -0.00661 ± 0.007
GCATGACC | -0.155 ± 0.023
GACCGTCA | 0.0838 ± 0.01
TATGAATA | -0.218 ± 0.046
AGTACCTA | -0.0731 ± 0.017
AGTTAACA | 0.334 ± 0.023
GTAAACAC | 0.32 ± 0.0098
CACTTTCA | 0.268 ± 0.014
CCACCAGC | -0.192 ± 0.0092
GCCGGGAC | -0.255 ± 0.015
GACGCCGA | 0.123 ± 0.037
AGGAGCGG | -0.139 ± 0.014
AAGGCCAC | -0.108 ± 0.057
ATGCCACA | 0.00867 ± 0.018
GGAGGTAC | -0.276 ± 0.04
CCCCATTC | -0.144 ± 0.0093
GAAACTGC | -0.0732 ± 0.049
CGAGTTCC | -0.113 ± 0.055
TAATCATA | -0.175 ± 0.018
GCCCGCTA | -0.0812 ± 0.023
CGAATTAC | -0.0983 ± 0.017
TGATGACA | 0.251 ± 0.04
TCCCGCGA | 0.226 ± 0.02
ACTTATGC | -0.123 ± 0.0083

Sequence | PBM E-score of 8-mer
GAGATATC | 0.0386 ± 0.095
CGCCGTAG | -0.145 ± 0.11
GGCGAACC | -0.141 ± 0.05
CAAAACTC | -0.0226 ± 0.13
ACCAATAC | 0.0857 ± 0.031
TTAACAAA | 0.119 ± 0.037
CGATACAA | -0.145 ± 0.056
AGAGAGCA | -0.0528 ± 0.029
CACAAATA | 0.034 ± 0.022
GCGTCGCA | 0.112 ± 0.036
AGGGTGCG | 0.402 ± 0.01
CGGGTCCA | -0.0177 ± 0.044
CCGCGCGG | 0.0794 ± 0.1
ACAATACA | 0.0346 ± 0.048
CAGGCGCC | 0.175 ± 0.083
GCCATAAC | 0.126 ± 0.0033
AAGCGCAC | 0.0297 ± 0.0035
CTTGATAC | -0.0707 ± 0.059
GAGCACTC | -0.171 ± 0.033
GGACACCA | 0.183 ± 0.045
ATGTTAAG | -0.062 ± 0.022
ACGAGCTA | -0.118 ± 0.015
GAAATCCC | -0.0294 ± 0.026
GGTCTGGA | -0.185 ± 0.063
AGGATTAC | -0.242 ± 0.015

Sequence | PBM E-score of 8-mer
ATCGCCAC | 0.302 ± 0.053
CTTCCACA | 0.227 ± 0.045
CCTAAAAC | 0.0389 ± 0.026
TACTCATA | -0.0019 ± 0.00044
AACGAAAC | 0.042 ± 0.0061
GGCGTCAC | 0.373 ± 0.024
GGGCCCTA | -0.328 ± 0.021
AAACTTTG | -0.0173 ± 0.04
AACATCTC | 0.17 ± 0.0085
GCTCCAAC | 0.0384 ± 0.031
GTAACCTA | -0.123 ± 0.064
ACGATCAG | -0.129 ± 0.071
CTGAGCCA | -0.0691 ± 0.043
TGAAAGCA | 0.111 ± 0.022
CAACCAGA | -0.0623 ± 0.07
AGCCTTGG | -0.153 ± 0.048
CCCAGAAG | 0.00203 ± 0.0082
AGAATACT | -0.257 ± 0.094
AACTAGTA | -0.163 ± 0.016
AAGTGTCC | 0.2466 ± 0.0019
CAACTAAA | 0.0545 ± 0.0022
AACGAGTT | 0.0148 ± 0.089
CCCATTGA | -0.0576 ± 0.015
GCCATCAC | 0.198 ± 0.043
GCACTCTA | -0.026 ± 0.058

Sequence | PBM E-score of 8-mer
ATGTATGA | -0.1421 ± 0.00039
CGAGGCTA | -0.0781 ± 0.0044
CAAGTAAC | 0.113 ± 0.019
GCAAACAA | 0.046 ± 0.041
AGTCAAAC | -0.0576 ± 0.022
CTCGTTAA | 0.123 ± 0.012
AATTCGGA | -0.273 ± 0.004
CAACGTTG | 0.217 ± 0.051
GGCGTCCA | -0.0614 ± 0.0052
ATCTTTGC | 0.06 ± 0.029
ACGTTTAA | -0.185 ± 0.007
ACATAGGG | -0.161 ± 0.012
GCTTTACA | 0.0266 ± 0.031
CGGATCAG | -0.0346 ± 0.017
GATAAACA | 0.0173 ± 0.097
ACGGGTAT | 0.000385 ± 0.022
CAACATCG | 0.0455 ± 0.0082
GGCAACTA | 0.0212 ± 0.011
ACCACTAG | 0.0638 ± 0.071
ACCGTCAT | 0.0989 ± 0.0085
CGGCCCAG | -0.2798 ± 0.0014
CCTCGACG | 0.0784 ± 0.066
CAGGGGTA | -0.191 ± 0.06
CGCTAGCG | 0.107 ± 0.049
AACCTTGT | -0.131 ± 0.051

Sequence | PBM E-score of 8-mer
TCTTCCCA | 0.169 ± 0.0028
AAGATGCT | -0.285 ± 0.019
GCGACAGC | 0.262 ± 0.042
AAGAATGA | -0.122 ± 0.0021
CCCGTCCG | -0.112 ± 0.003
CCAATCCA | 0.0308 ± 0.037
ACTCCAGC | -0.242 ± 0.054
GACTCCCC | -0.247 ± 0.048
GCGGCGTA | -0.126 ± 0.094
AACCCCAC | -0.0189 ± 0.1
CAAGCACG | -0.0364 ± 0.021
AACCCCAT | 0.0327 ± 0.046
ACATGGCA | -0.0601 ± 0.028
ACATTGTG | 0.107 ± 0.067
ACGCGAAG | 0.185 ± 0.027
AAACACGG | -0.0457 ± 0.027
AGAGGGGG | -0.179 ± 0.0039
AAACTACC | -0.224 ± 0.082
ATTAATTA | -0.22 ± 0.019
AGGAGTGA | 0.212 ± 0.003
ACGTGGCC | -0.105 ± 0.026
CGTTTCGA | 0.00159 ± 0.013
CAACCCGA | 0.199 ± 0.012
GTAGGAAA | -0.0734 ± 0.057
GCTCCGTA | -0.0737 ± 0.0022

Sequence | PBM E-score of 8-mer
ATATATAC | -0.13 ± 0.0098
CATTCAAA | -0.166 ± 0.02
AGCTCCCG | -0.0988 ± 0.01
ATGCAACA | 0.0173 ± 0.0024
CACAGTCG | 0.225 ± 0.0023
AACCAGGG | -0.178 ± 0.02
TATATCCA | -0.134 ± 0.0081
AAAGCTGG | 0.0738 ± 0.048
GTGTCAAC | 0.4761 ± 0.0027
AGAATTTG | -0.0957 ± 0.061
AACCCAGC | -0.15 ± 0.025
GCCTATAA | -0.0749 ± 0.039
GCGGACAC | 0.266 ± 0.028
GCCTCAGA | -0.159 ± 0.0072
CAACCCCG | 0.0744 ± 0.027
CGAACTCC | 0.00536 ± 0.032
AATTGTCT | -0.273 ± 0.005
TACCGATA | -0.15 ± 0.041
AGGGTTGG | -0.194 ± 0.0075
CAATTTTA | -0.116 ± 0.058
CTTCGCAC | 0.461 ± 0.015
TGGAACAA | -0.205 ± 0.0048
